Measurements published in US20250188167A1.

Molecular target: human B7-H3 (human), Q5ZPR3
Experiment: cell-based or functional assay

Chain of human B7-H3 (human), Q5ZPR3 (Q5ZPR3 29-534): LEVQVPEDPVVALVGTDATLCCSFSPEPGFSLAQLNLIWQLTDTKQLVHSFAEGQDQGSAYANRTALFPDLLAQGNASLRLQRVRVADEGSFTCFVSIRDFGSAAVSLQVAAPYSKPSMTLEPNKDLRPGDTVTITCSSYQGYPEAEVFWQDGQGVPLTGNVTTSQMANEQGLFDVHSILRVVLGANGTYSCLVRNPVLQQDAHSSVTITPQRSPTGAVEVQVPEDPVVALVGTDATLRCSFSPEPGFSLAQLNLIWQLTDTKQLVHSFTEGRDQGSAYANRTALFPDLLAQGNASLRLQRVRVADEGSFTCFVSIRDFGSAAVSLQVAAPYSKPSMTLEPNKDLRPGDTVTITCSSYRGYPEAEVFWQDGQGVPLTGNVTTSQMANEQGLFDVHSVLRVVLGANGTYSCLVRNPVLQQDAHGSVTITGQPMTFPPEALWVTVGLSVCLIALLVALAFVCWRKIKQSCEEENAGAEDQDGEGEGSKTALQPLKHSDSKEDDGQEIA

B1: 47F3F10B4-hIgG1 (antibody)
heavy: EVQLQQSGPELVKPGASVKMSCKASGYTFTDHYMHWVKQSHGKSLEWIGYIFPNNGVSGYNQNFKDKATLTVDKSSSTAYMDLRSLTPEDSAVYYCTRRQLGLGTMDYWGQGTSVTVSS[human IgG1 constant region omitted]
light: DIVLTQSPASLAVSLGQRATISCRASKSVSTSGYNYMHWYQQKPGQPPKLLIYLASNLESGVPARFSGSGSGTDFTLNIHPVEEEDAATYYCQHSKELPWTFGGGTKLEIKRTVAAPSVFIFPPSDEQLKSGTASVVCLLNNFYPREAKVQWKVDNALQSGNSQESVTEQDSKDSTYSLSSTLTLSKADYEKHKVYACEVTHQGLSSPVTKSFNRGEC
Q: Which results are given for B1?
A: ADCC % Relative activity (EC50 of positive control MGA-271 / EC50 of sample), plate 02: 1530%; ADCC EC50 (% target cell lysis, LDH; NK92/CD16a-VV effector cells), plate 02: 0.00289 µg/mL; CDC % Relative activity (EC50 of positive control DS-5573a / EC50 of sample): 165%; CDC EC50 (% target cell lysis, Cell Titer-Glo): 0.418 µg/mL
